{"source": "PubChem BioAssay AID1671193", "about": "(National Center for Advancing Translational Sciences (NCATS), 2021)", "note": "The campaign covered roughly 150,000 compounds. About 180 (0.12%) were called active. The shares of active, inactive and inconclusive entries below differ from those in the screen. Calls come from the whole dose curve; as a rule, active = well fitted cell-killing curve with a large enough effect; inconclusive = small, poorly fitted or top-dose-only effect, or effect the other way; inactive = flat fitted curve, though single readings scatter. A potency beside an inconclusive call is a rough fit, not a confirmed value. Potency is the fitted concentration of half-maximal effect; tags give direction and shape of the fitted curve."}
{"experiment": "GF-AFC viability counterscreen for inhibitors of alpha-synuclein gene (SNCA) expression; note: nearly all actives have a fitted effect of over 30% in size;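 for activity change, negative = cytotoxicity: 0% = DMSO-treated cells and -100% = medium-only wells without cells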", "settings": "HEK-293-SNCA-luc viability, GF-AFC fluorescence, 24 h; activity change, negative = cytotoxicity: at 57.1 µM (top of the series) unless noted", "how_it_was_run": "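Cytotoxicity counterscreen: after 24 h compound treatment of genome-edited SNCA-luciferase HEK-293 cells, live-cell protease substrate GF-AFC read by fluorescence after 30 min; activity scaled between DMSO (0%) and medium-only (-100%), curves Hill-fitted.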"}
{"smiles": "CN1CCCCCC(O)c2cc(C(=O)NC3CCN(Cc4ccccc4)CC3)ccc21", "note": "(stereo not given)", "Potency": "inconclusive: 6.31 µM [rising, partial curve, poor fit]"}
{"smiles": "O=S(=O)(NCCc1csc2nc(-c3ccc(F)cc3)nn12)c1ccc2c(c1)OCCO2", "Potency": "inconclusive: 31.6 µM [cytotoxic, single point]"}
{"smiles": "COc1ccc(CN2C[C@@H](CO)[C@H](c3nc(C)no3)C2)cc1OC", "Potency": "inconclusive: 0.708 µM [cytotoxic, full curve, poor fit]"}
{"smiles": "Cc1ccc([S+](=O)([O-])N2CCCC(C(=O)N3CCC(c4nc5ncccc5[nH]4)CC3)C2)cc1", "note": "(stereo not given)", "activity change, negative = cytotoxicity": "inactive: -13.4%"}
{"smiles": "Clc1ccccc1C1(c2ccnc(-c3ccccn3)n2)CCNCC1", "Potency": "inconclusive: 14.1 µM [cytotoxic, partial curve, poor fit]"}
{"smiles": "COc1cc(F)ccc1-c1ccnc2ncnn12", "activity change, negative = cytotoxicity": "inactive: 6.04%"}
{"smiles": "COc1ccc(C(=O)NC2CCN(c3cc(-c4ccccc4)[nH]n3)C2)c(OC)c1", "note": "(stereo not given)", "activity change, negative = cytotoxicity": "inactive: -11.5%"}
{"smiles": "COCCC(=O)N1C[C@@H](Oc2ccccc2)C[C@@H]1C(=O)N1CCOCC1", "activity change, negative = cytotoxicity": "inactive: -4.21%"}
{"smiles": "O=C(Nc1cc(-c2cccnc2)nn1-c1ccccc1)c1ccccc1F", "activity change, negative = cytotoxicity": "inactive: -11.9%"}
{"smiles": "CN(C)C(=O)N1CCCn2nc(CNC(=O)c3sccc3N)cc2C1", "activity change, negative = cytotoxicity": "inactive: 0.568%"}
{"smiles": "CC1(C)[C@H](Cc2cc(CC3CCCCC3)on2)C[C@@H]1NC(=O)C1CCC1", "Potency": "inconclusive: 44.7 µM [cytotoxic, single point]"}
{"smiles": "COc1cc(OC)cc(-c2ccc3ncc4ccc(=O)n(-c5ccc(N6CCNCC6)c(C(F)(F)F)c5)c4c3c2)c1", "Potency": "inconclusive: 9.61 µM [cytotoxic, full curve, poor fit]"}
{"smiles": "O=C(NCc1ccccc1)c1ccccc1OC1CN(Cc2cccnc2F)C1", "activity change, negative = cytotoxicity": "inactive: -29.6%"}
{"smiles": "CC(C)c1ccc(NC(=O)c2ccc(CN3C(=O)NC4(CCOCC4)C3=O)cc2)cc1", "activity change, negative = cytotoxicity": "inactive: 2.11%"}
{"smiles": "COc1ccccc1CNc1ccnc(-c2ccc(N(C)C)cc2)n1", "Potency": "inconclusive: 15.8 µM [cytotoxic, single point]"}
{"smiles": "COc1cccc(-c2nc(NC3CC3)c3ccccc3n2)c1", "Potency": "inconclusive: 7.94 µM [cytotoxic, partial curve, poor fit]"}
{"smiles": "COc1ccc(-c2cn3nc(N4CCCC(C(=O)NCCCOC(C)C)C4)sc3n2)cc1", "note": "(stereo not given)", "Potency": "inconclusive: 39.8 µM [cytotoxic, single point]"}
{"smiles": "COc1ccc2cc(CNc3ccccc3)c(=O)n(CC(=O)Nc3ccc(C(C)=O)cc3)c2c1", "Potency": "inconclusive: 22.4 µM [cytotoxic, single point]"}
{"smiles": "CC(C)(C)C(=O)Nc1ccc2nc(SCc3ccccc3)sc2c1", "activity change, negative = cytotoxicity": "inactive: -8.09%"}
{"smiles": "Cc1ccc(C(=O)N(CCCN)C(c2nc3cc(Cl)ccc3c(=O)n2Cc2ccccc2)C(C)C)cc1", "note": "(stereo not given)", "Potency": "active: 29.9 µM"}
{"smiles": "CCc1ccc(NCc2cc3cc(OC)c(OC)cc3n(CC(=O)Nc3ccc(F)cc3)c2=O)cc1", "Potency": "inconclusive: 17.8 µM [rising, partial curve]"}
{"smiles": "Cc1ccc(-c2nnc(C3CN(C(=O)c4cccc(C)c4)CC34CCOCC4)o2)cc1", "note": "(stereo not given)", "Potency": "inconclusive: 14.1 µM [cytotoxic, partial curve, poor fit]"}
{"smiles": "O=C(C1CCCN1C(=O)Nc1ccc(Cl)cc1)N1CCC(N2Cc3cccn3C2=O)CC1", "note": "(stereo not given)", "activity change, negative = cytotoxicity": "inactive: -15.8%"}
{"smiles": "CCOC(=O)c1ccc(N2C(=O)c3n[nH]c(-c4cccs4)c3C2c2cccc(O)c2)cc1", "note": "(stereo not given)", "Potency": "inconclusive: 14.1 µM [cytotoxic, partial curve, poor fit]"}
{"smiles": "CC1=C[C@@H](CNCc2ccco2)[C@H](C(C)C)C[C@H]1Cc1nnc(-c2ccccc2F)o1", "Potency": "inconclusive: 25.1 µM [cytotoxic, partial curve]"}
{"smiles": "CC(=O)Nc1cc(C(=O)N(C)Cc2ccco2)c2ccc(C)nc2c1", "activity change, negative = cytotoxicity": "inactive: 2.45%"}
{"smiles": "N#Cc1c(-n2ncnc2-c2ccccc2Cl)sc2c1CCCCC2", "activity change, negative = cytotoxicity": "inactive: -5.06%"}
{"smiles": "COc1cccc(Cn2c(=O)c(-c3cn(C)c4ccccc34)nc3cnc(N4CCNCC4)nc32)c1", "Potency": "inconclusive: 20 µM [rising, partial curve]"}
{"smiles": "COc1ccc(CNC(=O)c2cc(-c3ccc(OC)c(OC)c3)nc3n[nH]c(-c4ccc(C)cc4)c23)cc1", "Potency": "inconclusive: 35.5 µM [cytotoxic, single point]"}
{"smiles": "Cc1noc([C@@H]2CN(Cc3ccccc3C)C[C@H]2CO)n1", "activity change, negative = cytotoxicity": "inactive: -8.11%"}
{"smiles": "C=C1CCC2C(C)(C)C(O)CCC2(C)C1CCC(C)CCO", "note": "(stereo not given)", "activity change, negative = cytotoxicity": "inactive: 0.909%"}
{"smiles": "CC1CCN(S(=O)(=O)c2ccc3nc(Nc4cccc(F)c4)ccc3c2)CC1", "Potency": "inconclusive: 39.8 µM [cytotoxic, partial curve, poor fit]"}
{"smiles": "NCc1ccccc1-c1ccc(O)cc1", "activity change, negative = cytotoxicity": "inactive: 7.23% [at 87.6 µM]"}
{"smiles": "O=C(O)c1ccc(N2C(=O)/C(=C/c3ccc(-c4ccc([N+](=O)[O-])cc4)o3)C=C2c2ccccc2)cc1", "Potency": "inconclusive: 4.74 µM [cytotoxic, full curve, poor fit]"}
{"smiles": "O=C(NCc1cccs1)c1csc(N2CCN(c3ccc(F)cc3)CC2)n1", "activity change, negative = cytotoxicity": "inactive: -12%"}
{"smiles": "c1ccc(Cn2c(-c3ccc(OCC(C4CCNCC4)n4c(-c5ccccc5)nc5ccccc54)cc3)nc3ccccc32)cc1", "note": "(stereo not given)", "Potency": "inconclusive: 37.7 µM [cytotoxic, single point]"}
{"smiles": "COc1ccc(F)cc1Nc1cnc2ccc(N(C)Cc3cccnc3)nn12", "Potency": "inconclusive: 35.5 µM [rising, partial curve, poor fit]"}
{"smiles": "CCNc1ncc2nc(-c3cn(C)c4ccccc34)c(=O)n(Cc3cccs3)c2n1", "Potency": "inconclusive: 12.6 µM [rising, partial curve]"}
{"smiles": "COc1cccc(C(=O)NCc2nnc3ccc(-c4ccc(C)cc4)nn23)c1OC", "activity change, negative = cytotoxicity": "inactive: -17.8%"}
{"smiles": "N#Cc1nc(/C=C/c2ccc(F)cc2)oc1N1CCCCCC1", "Potency": "inconclusive: 28.2 µM [rising, single point]"}
{"smiles": "O=C(Nc1ccc(Cl)cc1)N1Cc2[nH]cnc2C[C@H]1c1nc(-c2ccc(F)c(Cl)c2)no1", "Potency": "inconclusive: 28.2 µM [cytotoxic, partial curve]"}
{"smiles": "O=C(NC1CC1)[C@@H]1CN(Cc2cc(F)c(F)cc2F)C[C@H]1CO", "Potency": "inconclusive: 5.01 µM [cytotoxic, single point]"}
{"smiles": "O=C(c1cccc(OC2CN(Cc3cccc(F)c3)C2)c1)N1CCOCC1", "Potency": "inconclusive: 2.82 µM [rising, full curve, poor fit]"}
{"smiles": "Cn1cc(-c2nc3cnc(N4CCOCC4)nc3n(CCC#N)c2=O)c2ccccc21", "Potency": "inconclusive: 14.1 µM [rising, partial curve, poor fit]"}
{"smiles": "COc1ccc(NC(=O)CSc2nc3ccccc3n2CC(=O)N(C)C2CCCCC2)cc1", "Potency": "inconclusive: 0.282 µM [cytotoxic, full curve, poor fit]"}
{"smiles": "Cc1ccccc1C(=O)N1CCC(C(=O)N2CCC(N3Cc4ccccc4C3=O)CC2)CC1", "Potency": "inactive"}
{"smiles": "COc1cc(C2c3c(-c4cc(C)ccc4O)n[nH]c3C(=O)N2Cc2ccco2)cc(OC)c1OC", "note": "(stereo not given)", "Potency": "inconclusive: 28.2 µM [cytotoxic, partial curve]"}
{"smiles": "O=c1n(-c2ccc(Cl)cc2)nc2n1CCN(Cc1ccccc1)C2", "Potency": "inconclusive: 7.94 µM [cytotoxic, partial curve]"}
{"smiles": "CC(C)(C)c1cc(/C=C(\\C#N)C(N)=S)cc(C(C)(C)C)c1O", "Potency": "inconclusive: 3.98 µM [cytotoxic, full curve]"}
{"smiles": "CNc1nccc(N2CCC(CC(=O)N(C)CCCc3c(C)nn(C)c3C)CC2)n1", "Potency": "inconclusive: 39.8 µM [cytotoxic, partial curve, poor fit]"}
{"smiles": "COc1ccc(CCC(=O)N2CC(F)(F)C[C@H]2c2nc(C)no2)cc1", "Potency": "inconclusive: 3.16 µM [cytotoxic, single point]"}
{"smiles": "Cn1cc(-c2nc3cnc(OCc4ccccc4)nc3n(CCC#N)c2=O)c2ccccc21", "Potency": "inconclusive: 3.16 µM [rising, partial curve, poor fit]"}
{"smiles": "O=C(O)/C=C/c1ccc(-c2ccc(O)c(C34CC5CC(CC(C5)C3)C4)c2)cc1", "Potency": "inconclusive: 2.38 µM [cytotoxic, partial curve, poor fit]"}
{"smiles": "O=C(NCc1ccsc1)c1nc(-c2ccc(Cl)cc2)c2cnccn12", "activity change, negative = cytotoxicity": "inactive: 17.8%"}
{"smiles": "COc1ccc(OCCCn2c(C3CC(=O)N(c4ccc(F)cc4)C3)nc3ccccc32)cc1", "note": "(stereo not given)", "Potency": "inconclusive: 25.1 µM [cytotoxic, single point]"}
{"smiles": "COc1cccc(CNC(=O)C2CCCN2Cc2ccc(-c3cncnc3)cc2)c1", "note": "(stereo not given)", "Potency": "inconclusive: 7.08 µM [cytotoxic, single point]"}
{"smiles": "CC(=O)N1CC2(CCN(Cc3cc4ccccc4[nH]3)C2)Cc2ccccc21", "note": "(stereo not given)", "activity change, negative = cytotoxicity": "inactive: -3.98%"}
{"smiles": "O=C(Nc1cccc(Cl)c1)c1nc2sccn2c1-c1cccnc1", "Potency": "inconclusive: 8.91 µM [cytotoxic, single point]"}
{"smiles": "N#Cc1cccc(-c2c(C(=O)NC3CC3)nc3sccn23)c1", "activity change, negative = cytotoxicity": "inactive: -0.926%"}
{"smiles": "COc1cc2nc(N3CCN(C(=O)c4ccco4)C4CCCCC43)nc(N)c2cc1OC", "note": "(stereo not given)", "Potency": "inconclusive: 33.6 µM [cytotoxic, single point]"}
{"smiles": "COCCN1C(=O)CCC2(C(=O)NCCN(C)C3CCCCC3)CCCC=C12", "note": "(stereo not given)", "Potency": "inconclusive: 6.31 µM [cytotoxic, single point]"}
{"smiles": "FC(F)(F)c1cccc(Nc2nc3nonc3nc2Nc2ccc(Cl)cc2)c1", "Potency": "inconclusive: 10 µM [cytotoxic, partial curve, poor fit]"}
{"smiles": "CCN1CCN(CCNC(=O)c2cc(-c3ccc(Cl)cc3)cn2C)CC1", "Potency": "inconclusive: 2.51 µM [rising, full curve, poor fit]"}
{"smiles": "O=C(C1CCN(S(=O)(=O)c2cccs2)CC1)N1CCN(c2ccccc2F)CC1", "Potency": "inconclusive: 39.8 µM [rising, single point]"}
{"smiles": "COc1ccc(NC(=O)N2CCC(Oc3ccc(-c4noc(C5CC5)n4)cc3)C2)cc1", "note": "(stereo not given)", "activity change, negative = cytotoxicity": "inactive: -4.38%"}
